The full ranking holds about 13,000 compounds; the median of “IFI” is about 4, and the highest 2% start at about 17. The list shows a part of the results.
Experiment: GSK_TCMDC: Inhibition Frequency Index (IFI). The number of non-kinase HTS assays where a compound showed > 50 % inhibition, expressed as a percentage of the number of such assays in which the compound was tested (-0 is zero)
Type: functional

SMILES	IFI
N=c1n(Cc2ccc(Cl)cc2)c2ccccc2n1CC(O)c1ccc(Cl)c(Cl)c1 (stereo not drawn)	12.5%
C=CCOC1OC(COC(c2ccccc2)(c2ccccc2)c2ccccc2)C(OC(C)=O)C(OC(C)=O)C1NC(C)=O (stereo not drawn)	0.76%
CCn1cc(CN2CCCC(C(=O)Nc3ccc(-c4nc5ccccc5[nH]4)cc3)C2)cn1 (stereo not drawn)	-0%
CC(CO)(CO)NCc1cc2ccc3ccsc3c2c2ccccc12	7.52%
OC(CN1c2ccccc2Sc2ccccc21)CN(C1CCCCC1)C1CCCCC1 (stereo not drawn)	11.6%
COc1c(C2=CCN(CCCCNC(=O)c3ccc(-c4ccc(C#N)cc4)cc3)CC2)c(C)cc2c1C(C)(C)CCC2(C)C	4.62%
O=C(NC1CC1)C1CCN(Cc2cc3ccccc3n2Cc2ccc(Cl)cc2)CC1	7.02%
Cc1cccc2nc(-c3ccc(-c4ccc(CN5CCN(CC6CCCN(C)C6)CC5)cc4)cc3)[nH]c12 (stereo not drawn)	7.04%
Cc1cccc2c(C(=O)NC3CCN(Cc4ccccc4)CC3)cc(-c3cccnc3)nc12	1.92%
CCCC(C)NC[C@@H](O)[C@H](Cc1ccccc1)NC(=O)c1cc(C2CCCC2)cc(N2CCCCS2(=O)=O)c1 (stereo partly drawn)	6.77%
CCOc1cc(C)ccc1C1CCN(CCCCNC(=O)c2nc(-c3ccc(C(F)(F)F)cc3)[nH]c2C)CC1	1.44%
Cc1cc(C(=O)N(Cc2ccc(-c3ccc(CNCCc4ccc(S(C)(=O)=O)cc4)cn3)cc2)C(C)CN(C)C)ccc1[N+](=O)[O-] (stereo not drawn)	1.4%
Cc1ccc(CNC(=O)[C@H](CCCN)Nc2nc(Nc3ccccc3)ncc2C)cc1	4.76%
CC(C)NC(=O)c1cccc(-c2cccc(OCCN3CCSCC3c3ccccc3)c2)c1 (stereo not drawn)	7.55%
Nc1nc(-c2ccc3c(Nc4ccc(F)c(Cl)c4)ccnc3c2)cs1	4.32%
COc1ccc2cc(C(=O)Nc3ccc4c(c3)CCN(C3CCC3)CC4)ccc2c1	3.76%
COc1cc(NC2CCCC(NCc3cn(S(=O)(=O)c4ccccc4)c4ccccc34)C2)nc2ccccc12 (stereo not drawn)	6.62%
COc1ccc(Nc2nccc(N3CCC(NC(=O)Nc4cccc(OC)c4)C3)n2)cc1 (stereo not drawn)	1.54%
CCCc1ccc(S(=O)(=O)NC2CCN(C(=O)Nc3ccc(I)cc3)CC2)cc1	2.94%

SMILES	IFI
CCCC(C)Nc1nc(C)cc(N[C@@H](CC(C)C)C(=O)NCCc2ccccc2)n1 (stereo partly drawn)	6.82%
CC(=O)Nc1ccc(C(=O)Nc2cccc(-c3ccc(-c4nc5cc(F)ccc5[nH]4)cc3)c2)cn1	8.11%
Clc1cccc(CNc2nc(NCCc3c[nH]cn3)nc(NC3CCCCC3)n2)c1	0%
Cc1cnc(C(=O)Nc2ccc3c(c2)CCCN(Cc2c[nH]c4cnccc24)C3)cn1	0%
CO/C(=C\C=C\c1cc2cc(Cl)c(Cl)cc2[nH]1)C(=O)NCCCN1CCN(Cc2ccccc2)CC1	15.8%
Nc1nc(N)c2c(Oc3cccnc3)cccc2n1	2.96%
Cc1cccc2nc(-c3cccc(-c4ccc(NC(=O)Cc5ccccn5)cc4)c3)[nH]c12	3.48%
C=C(C)CSc1nc2c(c(=O)n1CCc1ccccc1)C1(CCCC1)Cc1ccccc1-2	-0%
NCCNc1ccc([N+](=O)[O-])cc1C(=O)Nc1cccc(Cl)c1	1.45%
Cc1nc(NCCCn2ccnc2)cc(-c2cncc(-c3ccc(OC(F)(F)F)cc3)c2)n1	1.03%
Fc1ccc2[nH]ccc(=NN=Cc3ccccc3Cl)c2c1	0.72%
COc1ccc2nccc([C@@H](O)CN3CCC(NC(=O)c4ccc(Cl)c([N+](=O)[O-])c4)CC3)c2c1	4.38%
O=C(/C=C/c1ccc(Cl)c(Cl)c1)NCCCCCCN1CCN(C(=O)Nc2cccc(Cl)c2)CC1	6.4%
CC(C)(CNC(=O)C1CCN(Cc2ccoc2)CC1)c1nc(-c2ccc(Cl)c(O)c2)c(-c2ccncc2)[nH]1	-0%
CCc1ccc(C2CCN(CCCCNC(=O)c3ccc(NC(=O)c4ccc(Cl)cc4)cc3)CC2)c(OC(C)=O)c1	6.36%
COc1ccccc1C(=O)N1CCN(Cc2cccs2)CC1	0%
OC1CCCN(Cc2ccc(-c3cccc(-c4nc5cc(F)ccc5[nH]4)c3)cc2)C1 (stereo not drawn)	-0%
O=C(Nc1ccc(Cl)cc1)Nc1cccc(-c2cccc(-c3nc4ccccc4[nH]3)c2)c1	4.04%
CCCCNC(=O)[C@H](CC1CCCCC1)NC(=O)c1ccc(O)c(-c2ccc(Cl)c(Cl)c2)c1	2.96%

Reference: ChEMBL document CHEMBL1157539, “Thousands of chemical starting points for antimalarial lead identification” (Nature, 2010)
